PubChem BioAssay AID1768 (National Center for Advancing Translational Sciences (NCATS), 2009)
About 620 (0.23%) of roughly 270,000 compounds were called active. The inconclusive results got no clear call from the source; some entries with a clear call stand among them for comparison. Calls come from the whole dose curve; as a rule, active = well fitted inhibition curve with a large enough effect in the polarisation, with a control signal flat (not every such curve was filed as active); inconclusive = small, poorly fitted or top-dose-only effect, or effect the other way, or a change in a side signal; inactive = no such curve, though single readings can be large or run the other way; the % refers to the polarisation. Where the call is inconclusive, the potency comes from a doubtful curve fit. “Side channel” marks fits to a control or component signal instead of the main read-out.

target: Menin (Homo sapiens) (UniProt O00255); test: qHTS Assay for Inhibitors Targeting the Menin-MLL Interaction in MLL Related Leukemias: Competition With Texas Red Labeled MLL-derived Mutant Peptide; details: fluorescence polarization; FP activity change, negative = inhibition: at 61.6 µM (top of the series); for FP activity change, negative = inhibition: % of control where 0% means no effect
Sequence of UniProt O00255 (O00255 whole entry, looked up): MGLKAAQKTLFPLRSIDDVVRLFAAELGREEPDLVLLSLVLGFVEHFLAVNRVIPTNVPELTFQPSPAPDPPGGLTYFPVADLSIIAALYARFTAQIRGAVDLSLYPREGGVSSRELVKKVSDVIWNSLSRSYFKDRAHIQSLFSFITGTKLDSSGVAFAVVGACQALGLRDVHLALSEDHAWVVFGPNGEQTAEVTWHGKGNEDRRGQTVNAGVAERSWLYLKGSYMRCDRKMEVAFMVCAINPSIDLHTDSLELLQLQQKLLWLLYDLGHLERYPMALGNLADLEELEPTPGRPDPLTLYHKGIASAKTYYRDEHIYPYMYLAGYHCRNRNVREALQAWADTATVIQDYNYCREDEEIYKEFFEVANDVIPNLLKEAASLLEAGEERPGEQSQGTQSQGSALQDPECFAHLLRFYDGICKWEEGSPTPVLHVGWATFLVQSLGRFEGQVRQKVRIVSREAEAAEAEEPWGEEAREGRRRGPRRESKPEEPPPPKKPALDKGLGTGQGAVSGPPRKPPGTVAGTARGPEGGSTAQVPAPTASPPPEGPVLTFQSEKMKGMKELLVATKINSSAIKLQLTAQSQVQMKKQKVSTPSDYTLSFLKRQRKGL
Potency is the fitted concentration of half-maximal effect; tags give direction and shape of the fitted curve or compound fluorescence and quenching.

SMILES	Potency	FP activity change, negative = inhibition
O=C(Nc1cccc(/C=C/c2ccccn2)c1)c1cc(Cl)ccn1	inconclusive: 11.2 µM [inhibitor, partial curve, poor fit]	–
CCOc1ccccc1-c1cc(C(=O)Nc2ccc(C(=O)O)cc2)c2ccccc2n1	inconclusive: 35.5 µM [quencher, side channel, partial curve]	–
COc1ccc(C(=O)/C=C/c2ccccc2)cc1	inconclusive: 12.6 µM [fluorescent, side channel, partial curve]	–
OCc1cc(C(O)CNCCCCCCOCCCCc2ccccc2)ccc1O (stereo unspecified)	inconclusive: 4.47 µM [fluorescent, side channel, full curve, poor fit]	–
NC(Cc1c[nH]c2ccc(OCc3ccccc3)cc12)C(=O)O (stereo unspecified)	inconclusive: 17.8 µM [quencher, side channel, partial curve]	–
O=C(c1ccc(C23CC4CC(CC(C4)C2)C3)o1)N1CCOCC1	inconclusive: 8.91 µM [fluorescent, side channel, partial curve]	–
CCOc1cc(/C=C2\SC(N3CCCC(C)C3)=NC2=O)ccc1O (stereo unspecified)	inconclusive: 3.16 µM [quencher, side channel, single point]	–
COc1cc2c(cc1OC)CN(C1CC(=O)N(c3c(C)cccc3C)C1=O)CC2 (stereo unspecified)	inconclusive: 22.4 µM [quencher, side channel, partial curve]	–
Cc1cccc(Oc2ncc(-c3ccc(Cl)cc3)cn2)c1	inconclusive: 31.6 µM [inhibitor, single point]	–
CC[n+]1ccc(C)c2cc(P(=O)(c3ccccc3)c3ccccc3)ccc21	inconclusive: 10 µM [fluorescent, side channel, partial curve]	–
COC(=O)c1cc2c(cc1NC(=O)CSCCc1ccccn1)OCO2	inconclusive: 39.8 µM [inhibitor, single point]	–
Cc1cc(=O)[nH]c(Nc2ccccc2C)n1	inconclusive: 44.7 µM [inhibitor, partial curve, poor fit]	–
CCc1cc2c(CN3CCN(Cc4ccccc4)CC3)cc(=O)oc2cc1O	inconclusive: 14.1 µM [fluorescent, side channel, partial curve]	–
CCCCC/C=C\C/C=C\C/C=C\C/C=C\CCCC(=O)O[C@H](COCCCCCCCCCCCCCCCC)COP(=O)([O-])OCC[N+](C)(C)C	–	inactive: 0.576%
CN(Cc1ccccc1)C(=O)C1CCN(S(=O)(=O)c2cccc3nonc23)CC1	–	inactive: -1.1%
CCCOc1ccc(N2C(=O)CC(S/C(N)=N/N=C(\C)c3cccs3)C2=O)cc1 (stereo unspecified)	inconclusive: 15.8 µM [quencher, side channel, partial curve]	–
NC(=O)c1ccc(N=Nc2c(O)c3ccccc3[nH]c2=O)cc1	–	inactive: -11.8%
Nc1cc(Br)c(N)c(Br)c1	–	inactive: 6.6%
COCO[C@H]([C@@H](C)C=C(Br)Br)[C@@H](C)COCc1ccc(OC)cc1	–	inactive: -14.8%
C=CCNC(=S)NC1CC(C)(C)NC(C)(C)C1	–	inactive: -5.95%
O=C(Oc1ccc2[nH]cc(CCN3C(=O)c4ccccc4C3=O)c2c1)c1ccco1	inconclusive: 39.8 µM [inhibitor, single point]	–

SMILES	Potency	FP activity change, negative = inhibition
Cc1nc2[nH]c(=S)n(C)c(=O)c2nc1C	–	inactive: -0.816%
Cc1ccc(S(=O)(=O)N(CC(=O)N/N=C/c2cccc(Cl)c2)c2cccc3cccnc23)cc1	inconclusive: 39.8 µM [inhibitor, single point]	–
Cc1ccc(C(C(=O)NCC2CCCO2)N(C(=O)c2snc(C(N)=O)c2N)c2ccc(F)cc2)o1 (stereo unspecified)	inconclusive: 15.8 µM [fluorescent, side channel, partial curve]	–
CSc1nc(N(CCO)CCO)c2sc3nc(-c4ccco4)c4c(c3c2n1)CCC4	inconclusive: 3.55 µM [quencher, side channel, partial curve]	–
COc1ccc(OCc2nnc3n2N=C(c2ccccc2)C(CC(=O)O)S3)cc1 (stereo unspecified)	inconclusive: 31.6 µM [quencher, side channel, single point]	–
COc1ccc(-c2csc(-c3cc4ccccc4oc3=N)n2)cc1	inconclusive: 14.1 µM [quencher, side channel, partial curve]	–
CCCCn1c(=NC(=O)c2cccnc2)c(C(=O)OCC)cc2c(=O)n3ccccc3nc21	–	inactive: 1.18%
COc1ccc(NC(=O)CN(C)S(=O)(=O)c2ccc3c(c2)CCCN3C(C)=O)cc1	inconclusive: 3.55 µM [quencher, side channel, full curve]	–
COc1ccc2c(Cl)c(C(=O)N/N=C/c3c(C)[nH]c4ccccc34)sc2c1	inconclusive: 22.4 µM [quencher, side channel, partial curve]	–
COc1cccc(C2Nc3ccccc3C(=O)N2O)c1O (stereo unspecified)	–	inactive: 13.3%
COc1cc(NC(C(=O)Nc2cccc(C(C)=O)c2)c2ccccc2)cc(OC)c1OC (stereo unspecified)	inconclusive: 39.8 µM [quencher, side channel, single point]	–
CN1c2ccsc2/C(=N/Nc2ccccc2)CS1(=O)=O	inconclusive: 14.1 µM [quencher, side channel, partial curve]	–
O=C(Cc1ccc(F)cc1)Nc1nc(-c2ccc(F)c(F)c2)cs1	inconclusive: 15.8 µM [quencher, side channel, single point]	–
CCc1ccc(-c2nc(CSCC(=O)NCc3ccco3)c(C)o2)cc1	inconclusive: 1.78 µM [fluorescent, side channel, full curve]	–
Cc1ccccc1NC(=O)Cc1c(O)c2ccccc2[nH]c1=O	–	inactive: 7.83%
COc1cccc(C(C(=O)NC2CCCC2)N(CCC(C)C)C(=O)CCC(=O)Nc2cc(C)on2)c1 (stereo unspecified)	inconclusive: 5.01 µM [inhibitor, full curve, poor fit]	–
Nc1ccc2oc(=O)ccc2c1I	–	inactive: 4.61%
Cc1ccoc1C(=O)Nc1cccc(Oc2ccccc2)c1	inconclusive: 11.2 µM [quencher, side channel, partial curve]	–
C/C(=N\NC(=O)c1cc(C)nc2ccccc12)c1ccco1	–	inactive: -4.49%
OCCCNCc1ccc(N(c2ccccc2)c2ccccc2)cc1	inconclusive: 14.1 µM [fluorescent, side channel, partial curve]	–
CC(=O)NC(Cc1ccccc1)C(=O)NC1CCN(C(=O)c2cnccn2)CC1 (stereo unspecified)	inconclusive: 39.8 µM [inhibitor, single point]	–

SMILES	Potency	FP activity change, negative = inhibition
N#Cc1c(N)sc(=S)c2c1CCN(Cc1ccccc1)C2	inconclusive: 25.1 µM [fluorescent, side channel, partial curve]	–
CCc1ccccc1NC(=O)Nc1cccs1	inconclusive: 39.8 µM [quencher, side channel, single point]	–
CC(=O)Nc1ccc(-c2nnc(SCC(=O)Nc3ccc4c(c3)oc3ccccc34)n2C)cc1	inconclusive: 35.5 µM [inhibitor, single point]	–
Cc1ccc(C)c(NC(=O)CCC(=O)N/N=C/c2ccc3c(c2)OCO3)c1	inconclusive: 39.8 µM [fluorescent, single point]	–
O=C(/C=C/Nc1ccc(S(=O)(=O)Nc2ncccn2)cc1)c1ccc(Cl)c(Cl)c1	inconclusive: 35.5 µM [quencher, side channel, single point]	–
Cc1c(NC(=O)OCCNC(=O)COc2ccc(Cl)cc2Cl)sc(=S)n1C	inconclusive: 35.5 µM [quencher, side channel, single point]	–
CNCC[C@H](Oc1ccccc1OC)c1ccccc1	inactive	–
O=C1NN(c2cccc(Br)c2)C(=O)/C1=C\c1ccc(O)cc1	inconclusive: 28.2 µM [quencher, side channel, partial curve]	–
Fc1ccc(C(c2ccc(F)cc2)N2CCN(C/C=C\c3ccccc3)CC2)cc1	inconclusive: 10 µM [fluorescent, side channel, partial curve]	–
CC(=O)c1cccc(Oc2cc(NN3CCCCC3)c([N+](=O)[O-])cc2[N+](=O)[O-])c1	inconclusive: 8.91 µM [quencher, side channel, partial curve]	–
Cc1ccc(-c2nc(SCC(=O)Nc3cc(S(=O)(=O)N4CCCCC4)ccc3Cl)n[nH]2)cc1	–	inactive: -28.5%
COc1cc(/C=C/C(=O)OCC(=O)c2c(N)n(C)c(=O)n(C)c2=O)ccc1OC(F)F	inconclusive: 20 µM [quencher, side channel, partial curve]	–
CC(C)c1nc2ccc(Br)cn2c1NC1CCCC1	inconclusive: 17.8 µM [fluorescent, side channel, partial curve]	–
Cc1ccc(/C=N/N=C2/NC(=O)C(CC(=O)Nc3ccc(Cl)cc3)S2)o1 (stereo unspecified)	inconclusive: 31.6 µM [inhibitor, single point]	–
Cc1c(C(=O)Nc2ccc(OC(F)(F)F)cc2)sc2nc3n(c(=O)c12)CCC3	inconclusive: 20 µM [quencher, side channel, single point]	–
Cc1ccc(OCC(=O)Nc2ccc(S(=O)(=O)Nc3ccccn3)cc2)cc1	inconclusive: 22.4 µM [inhibitor, single point]	–
O=C(CCSc1nc2ccccc2o1)N1CCOCC1	inconclusive: 28.2 µM [inhibitor, single point]	–
CC(C)Cc1csc(NC(=O)c2ccc(Cl)cc2)c1C(=O)O	inconclusive: 11.2 µM [quencher, side channel, partial curve]	–
CS(=O)(=O)c1sc2nc(-c3cccs3)cc(-c3ccccc3)c2c1N	inconclusive: 35.5 µM [quencher, side channel, single point]	–
